Test results published in PubChem BioAssay AID485294 (National Center for Advancing Translational Sciences (NCATS), 2010).
The campaign covered roughly 370,000 compounds. About 150 (0.041%) were called active. The inconclusive results got no clear call from the source; some entries with a clear call stand among them for comparison. The call rests on the fitted dose curve; in most records, active means well fitted inhibition curve with a large enough effect; inconclusive means small, poorly fitted or top-dose-only effect; inactive means flat fitted curve, though single readings scatter. Potencies of inconclusive entries are left out as doubtful fits.

The compounds below were run against Beta-lactamase (Escherichia coli (strain K12)) (UniProt P00811) (assay: qHTS Inhibitors of AmpC Beta-Lactamase (assay with detergent)). Conditions: AmpC hydrolysis of nitrocefin, absorbance 480 nm, 0.01% Triton; series mostly up to 114 µM.
Chain of UniProt P00811 (P00811 whole entry, looked up): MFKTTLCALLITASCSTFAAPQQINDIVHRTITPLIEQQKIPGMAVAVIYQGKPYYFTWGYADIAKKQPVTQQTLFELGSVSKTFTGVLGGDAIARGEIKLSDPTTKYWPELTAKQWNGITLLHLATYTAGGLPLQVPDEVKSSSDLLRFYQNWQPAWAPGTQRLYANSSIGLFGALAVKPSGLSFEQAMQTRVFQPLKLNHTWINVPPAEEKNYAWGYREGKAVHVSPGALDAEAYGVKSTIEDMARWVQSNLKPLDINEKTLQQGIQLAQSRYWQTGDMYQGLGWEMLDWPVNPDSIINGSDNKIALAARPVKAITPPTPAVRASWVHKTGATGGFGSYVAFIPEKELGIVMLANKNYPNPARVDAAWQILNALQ
Procedure, shortened: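 20 mM phosphate pH 7.0 + 0.01% (detergent screen) or 0.0001% Triton X-100; 5.3 nM AmpC reagent; cpd preinc 15 min RT; nitrocefin (800 uM stock) to start; A480 q20 s × 4 min; Activity was normalised to no-enzyme and no-compound control wells.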
Further: nearly all actives have a fitted effect of over 25% in size.
Potency means the concentration at half of the fitted maximal effect; tags describe the fitted curve by direction and shape.

| SMILES | Potency |
| --- | --- |
| COC(=O)c1c(NC(=O)c2ccco2)sc(C(=O)N2CCCC2)c1C | inconclusive [inhibitor, partial curve, poor fit] |
| CC(=O)Nc1ccc(Nc2nc(C)cc(C)n2)cc1 | inconclusive [inhibitor, full curve, poor fit] |
| CCOC(=O)c1cnc(SCc2nc(N)nc(Nc3ccccc3)n2)nc1N | inactive |
| CCC(C)N(CC(=O)NCc1ccc(OC)cc1)C(=O)c1csnn1 (configuration not stated) | inconclusive [inhibitor, full curve] |
| Cc1ccc(CSCC(=O)N(C)CC(=O)Nc2ccccc2Cl)cc1 | inconclusive [inhibitor, single point] |
| CC(C)CSC1=NSC2=NC(=O)/C(=C\c3coc4ccccc4c3=O)C(=N)N12 | inactive |
| Cc1nn2c(=O)cc(COC(=O)c3cccc(NC(=O)c4ccc(F)cc4)c3)nc2s1 | inconclusive [inhibitor, single point] |
| Nc1cc(Nc2ccccc2)c2nonc2c1[N+](=O)[O-] | inactive |
| COC(=O)Cc1cc(=O)n2[nH]cnc2n1 | inconclusive [inhibitor, full curve, poor fit] |
| O=C(CCC(=O)c1cccs1)OCC(=O)N1CCN(C(=O)c2ccco2)CC1 | inconclusive [inhibitor, partial curve] |
| Fc1cc(Br)ccc1Nc1nc2ccccc2n2nnnc12 | inconclusive [inhibitor, full curve, poor fit] |
| O=C1c2ccccc2C(=O)N1CCN1CCc2ccccc21 | inconclusive [inhibitor, single point] |
| O=C(NC(=S)Nc1ccccc1O)c1cccnc1 | inconclusive [inhibitor, full curve] |
| Fc1ccc(C(OCCN2CCCC2)c2ccc(F)cc2)cc1 | inconclusive [inhibitor, partial curve, poor fit] |
| COc1ccccc1Cn1c(=S)[nH]c2ccccc2c1=O | inconclusive [inhibitor, partial curve, poor fit] |
| O=C(NCC(c1ccc(F)cc1)N1CCOCC1)c1ccc(Br)o1 (configuration not stated) | inconclusive [inhibitor, full curve, poor fit] |
| CC(C)(C)CC(=O)NCC(c1ccc2c(c1)OCO2)N1CCOCC1 (configuration not stated) | inactive |
| CC1CCc2nn(CC(=O)NCc3ccco3)cc2C1 (configuration not stated) | inconclusive [inhibitor, full curve, poor fit] |
| O=C(/C=C/c1ccccc1)NC(NC(=S)Nc1ccc(C(=O)O)cc1)C(Cl)(Cl)Cl (configuration not stated) | inconclusive [inhibitor, partial curve] |
| Cc1cccc(NC(=O)Cn2nnc3ccccc32)c1 | inconclusive [inhibitor, single point] |
| Cc1cccc(NC(=O)Cc2ccc(F)cc2)c1 | inconclusive [inhibitor, full curve, poor fit] |
| CCOC(=O)c1[nH]c(C)c(C(=O)NCc2ccc(Cl)cc2)c1C | inconclusive [inhibitor, full curve] |
| CC(C)CC(OC(=O)c1ccco1)C(=O)NC1CCCCC1 (configuration not stated) | active: 31.6 µM |
| CCOc1ccc(CN(C)C(=O)CCl)cc1 | inconclusive [inhibitor, single point] |

| SMILES | Potency |
| --- | --- |
| CN(C(=O)CSc1nc(-c2ccc(F)cc2)cs1)C1CCS(=O)(=O)C1 (configuration not stated) | inconclusive [inhibitor, full curve] |
| Cc1ccc(S(=O)(=O)N2CCN(C(=O)COC(=O)CCOc3ccccc3C)CC2)cc1 | inconclusive [inhibitor, partial curve, poor fit] |
| O=C1OC(c2ccccc2)=C/C1=C/N1CCOCC1 | inactive |
| CCn1cc(C2=NOC(C(=O)Nc3cc(C)nn3-c3ccccc3)C2)c(C)n1 (configuration not stated) | inconclusive [inhibitor, single point] |
| C[C@@H](C(=O)NCC1CC1)[C@@H]1C[C@@]1(C)[C@@H](NC(=O)OCc1ccccc1)c1ccccc1 | inconclusive [inhibitor, full curve, poor fit] |
| COc1ccccc1CNC(=O)CCn1c(=O)c2cccn2c2cccnc21 | inactive |
| CCOC(=O)C(=Cc1ccc(-c2ccsc2C(=O)OC)o1)C(=O)OCC | inactive |
| COCCNCCOc1ccc(C)cc1[N+](=O)[O-] | inactive |
| N#C/C(=C\Nc1ccc2c(c1)OCCO2)c1nc2ccccc2[nH]1 | inactive |
| CCOc1ccc(C(=O)Nc2cc(C)c3c(=O)oc4ccccc4c3n2)cc1 | inconclusive [inhibitor, full curve, poor fit] |
| Cc1ccc2oc3c(c(=O)c2c1)C(c1cccc(Br)c1)N(Cc1ccco1)C3=O (configuration not stated) | inconclusive [inhibitor, full curve, poor fit] |
| CSc1ccc(CN(C)C(=O)CSCC(=O)Nc2ccc(C)cc2)cc1 | inactive |
| Cn1c(SCC(=O)NCc2cccs2)nnc1-c1cccs1 | inactive |
| COc1ccccc1-c1ccc(NC2CCCC2)nn1 | inactive |
| CSc1cccc(NC(=O)c2cnn3ccccc23)c1 | inactive |
| Nc1nc2ccc(-c3nc4ccccc4o3)cc2s1 | inactive |
| CCOC(=O)c1sc(-c2cccs2)nc1C | inactive |
| COc1nnc(-c2ccc(C(=O)N3C[C@@H]4C[C@H](C3)c3cccc(=O)n3C4)cc2)c2ccccc12 | inconclusive [inhibitor, full curve, poor fit] |
| COc1ccccc1C(=O)Nc1ccc2oc(-c3cccc4c(Br)cccc34)nc2c1 | inactive |
| Cc1ccc(N(CC(=O)NCC2CCCO2)C(=O)CCC(=O)Nc2ccccn2)cc1 (configuration not stated) | inactive |
| Cn1c(CSCc2ccc(F)cc2)n[nH]c1=S | inconclusive [inhibitor, full curve, poor fit] |
| Cc1ccc(S(=O)(=O)c2ccc(-n3nc(C)cc3N)cc2)cc1 | inconclusive [inhibitor, full curve, poor fit] |
| Cc1sc(NC(=O)CSc2nnc(CCNC(=O)c3cccs3)n2C)nc1-c1ccccc1 | inconclusive [inhibitor, partial curve, poor fit] |
